Among all 310,000 compounds or so, about 14,000 (4.5%) showed an effect of 50% or more. Effects have a minus sign here. The list shows a part of the results.
Molecular target: human ether-à-go-go-related gene (hERG) potassium channel (human, UniProt Q12809)
Experiment: primary screen, population patch clamp on CHO cells stably expressing hERG
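Also: peak tail current of the secondary pulse compared with the same well before compound.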

Sequence of human ether-à-go-go-related gene (hERG) potassium channel (Q12809 whole entry, looked up): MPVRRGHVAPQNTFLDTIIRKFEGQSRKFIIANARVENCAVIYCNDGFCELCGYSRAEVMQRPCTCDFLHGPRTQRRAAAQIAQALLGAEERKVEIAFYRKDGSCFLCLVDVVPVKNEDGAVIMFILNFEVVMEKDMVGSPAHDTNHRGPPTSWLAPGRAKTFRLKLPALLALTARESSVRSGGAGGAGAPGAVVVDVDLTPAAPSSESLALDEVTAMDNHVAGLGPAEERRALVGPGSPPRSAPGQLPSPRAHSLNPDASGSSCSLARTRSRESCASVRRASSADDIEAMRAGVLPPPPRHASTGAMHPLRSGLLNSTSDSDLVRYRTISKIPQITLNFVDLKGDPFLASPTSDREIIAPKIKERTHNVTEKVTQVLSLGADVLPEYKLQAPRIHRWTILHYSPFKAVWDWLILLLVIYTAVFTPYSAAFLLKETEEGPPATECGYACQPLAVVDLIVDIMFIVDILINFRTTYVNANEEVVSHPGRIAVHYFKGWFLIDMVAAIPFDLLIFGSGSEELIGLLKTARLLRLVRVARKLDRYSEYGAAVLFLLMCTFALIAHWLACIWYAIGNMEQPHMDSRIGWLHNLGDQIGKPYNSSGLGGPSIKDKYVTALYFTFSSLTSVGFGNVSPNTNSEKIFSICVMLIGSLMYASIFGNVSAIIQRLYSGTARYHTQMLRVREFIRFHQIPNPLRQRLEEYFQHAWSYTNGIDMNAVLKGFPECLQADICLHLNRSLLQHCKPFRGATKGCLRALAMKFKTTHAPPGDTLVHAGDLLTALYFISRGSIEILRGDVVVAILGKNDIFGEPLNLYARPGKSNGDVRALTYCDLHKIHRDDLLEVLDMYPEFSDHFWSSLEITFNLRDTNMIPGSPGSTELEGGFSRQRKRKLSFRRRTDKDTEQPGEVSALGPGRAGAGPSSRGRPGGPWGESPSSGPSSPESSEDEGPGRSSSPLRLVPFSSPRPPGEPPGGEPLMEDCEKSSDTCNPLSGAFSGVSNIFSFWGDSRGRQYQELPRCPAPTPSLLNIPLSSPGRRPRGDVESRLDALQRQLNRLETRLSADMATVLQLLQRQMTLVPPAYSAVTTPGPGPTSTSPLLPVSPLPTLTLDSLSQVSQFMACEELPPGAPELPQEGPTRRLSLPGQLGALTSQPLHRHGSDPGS

| SMILES | hERG current change (%, negative = inhibition) at 10uM |
| --- | --- |
| CN(C)c1ccc(NC(=O)c2cccc(N3C(=O)CCC3=O)c2)cc1 | -3.12% |
| CC1=NN(c2ccccc2)C(=O)C1N=Nc1ccc(N)cc1 (stereo not shown) | 5.15% |
| O=C(c1c[nH]cc1-c1ccccc1)c1cccc2ccccc12 | -14.4% |
| O=C(Nc1ccccc1F)C1CCCN1S(=O)(=O)c1ccc(Cl)cc1 (stereo not shown) | -8.22% |
| COc1ccc(C2CC(c3cccc(OC)c3OC)n3nnnc3N2)cc1 (stereo not shown) | -33.9% |
| Cc1nc(C(=O)N/N=C/c2[nH]ncc2Br)cs1 | 10.2% |
| CCC(C)c1ccccc1OCCn1ccnc1.O=C(O)C(=O)O (stereo not shown) | -7.12% |
| CCN(CC)S(=O)(=O)c1cc(C(=O)Nc2ccccn2)ccc1C | -12.6% |
| O=C(CN1CCOCC1)NN1CC(=O)N(c2ccc(Cl)cc2)CC1=O | 5.81% |
| Cc1ccc(NC(=O)C2(NC(=O)c3ccccn3)CCCCC2)cc1Br | 6.26% |
| Cc1ccc(C(=O)C(C)N(C(=O)c2ccc(Cl)cc2Cl)N2C(=O)CCCC2=O)cc1 (stereo not shown) | -5.64% |
| COc1cc(NC(=O)Cn2cnc(S(=O)(=O)N3CCCCC3)c2)cc(OC)c1OC | 14.9% |
| CCC(Sc1nc2n[nH]c(C)c2c(=N)n1-c1ccc(C)c(Cl)c1)C(=O)N1CCOCC1 (stereo not shown) | -4.36% |
| O=C1NC(CCc2ccccc2)C(=O)N1Cc1cccc2ccccc12 (stereo not shown) | 13.6% |
| Cc1nc2ccc(P(=O)(O)O)cc2s1 | 16.2% |
| O=C(CNC(=O)N1CC(=O)Nc2ccccc21)Nc1cccc(F)c1 | 12.5% |
| COc1cc(O)ccc1C=O | -5.93% |
| Cc1cccc(C)c1NC(=O)N1CCC(N2CCCCC2)CC1 | 5.49% |
| COc1ccc2c3c([nH]c2c1)C(C)N(C(C)=O)CC3 (stereo not shown) | 7.88% |
| O=C1CN(S(=O)(=O)c2ccc(Br)cc2)c2ccccc2N1 | -6.63% |
| CCOc1ccc(NC(=O)c2cccc(NC3=NC4CS(=O)(=O)CC4S3)c2)cc1 (stereo not shown) | 24.2% |
| CC(C)CCNC(=O)COc1ccc2c(c1)C(=O)CC(C)(C)O2 | 6.94% |
| CC(=O)N1N=C(c2c(-c3ccccc3)c3cc(C)ccc3[nH]c2=O)CC1c1ccco1 (stereo not shown) | -18% |

| SMILES | hERG current change (%, negative = inhibition) at 10uM |
| --- | --- |
| CCOc1ccccc1Nc1cc2n(c(=O)n1)CCc1cc(OC)c(OC)cc1-2 | -6.03% |
| O=C(CSc1nnc2ccccn12)Nc1ccc2c(c1)OCCO2 | 7.4% |
| C/C=N/NC(=O)c1cc(Br)ccc1O | 4.19% |
| CN1CCN(c2ccc([N+](=O)[O-])c(-n3nc(-c4ccccc4)c4ccccc4c3=O)c2)CC1 | -19.5% |
| COc1ccc(C(OCC(O)CN(C)C2CCCCC2)c2ccc(OC)cc2)cc1 (stereo not shown) | -69.8% |
| Nc1ccccc1-c1nnc(-c2ccccc2N)n1N | 8.38% |
| COc1cc2c(cc1OC)CN(C(=O)c1ccc(S(=O)(=O)N3CCCCC3)cc1)CC2 | -16.5% |
| COc1cccc(CC2(CO)CCCN(Cc3cn(C)c4ccccc34)C2)c1 (stereo not shown) | -77.9% |
| CCOC(=O)c1c(NC(=O)c2ccoc2C)sc(C)c1C | 12% |
| CC(C)C(C(=O)NCc1ccco1)N(C(=O)CNS(=O)(=O)c1ccccc1)c1ccccc1 (stereo not shown) | 2.8% |
| COc1cc(OC)c(OC)cc1/C=N/N(C)c1ccccc1 | 17% |
| CC(=O)c1ccc(OCCCC(=O)N2CCN(S(=O)(=O)c3ccc(C)cc3C)CC2)cc1 | -40.8% |
| COc1ccc(CCC(=O)Nc2ccc(Br)cn2)cc1 | -0.761% |
| N/C(=N\OC(=O)c1ccc([N+](=O)[O-])cc1)c1ccccn1 | 1.34% |
| COCCNC(=O)c1oc2ccc3c(c2c1C)C(O)CC(C)(C)O3 (stereo not shown) | 14.5% |
| CCN(CC)CCNC(=O)NC(=O)c1ccc(Cl)cc1 | -63% |
| CC1(C)Cc2c(cnn2-c2ccccc2)-c2c1c1ccccc1n2CC(O)CBr (stereo not shown) | 8.52% |
| O=C(CSc1ccccc1)NCc1ccccn1 | 7.44% |
| Cc1ccc(C)c(S(=O)(=O)N2CCN(Cc3ccc(O)c4ncccc34)CC2)c1 | 8.36% |
| Cc1nn(C)cc1CNC(=O)c1cccc(F)c1 | 0.748% |
| COC(=O)N[C@H](CC(C)=O)c1cccc(C(F)(F)F)c1 | 19.5% |
| CC(C)CNC(=S)NC(=O)c1ccccc1Cl | -0.864% |
| CCOC(=O)C1(CCOc2ccccc2)CCN(Cc2cc(OC)c(O)c(OC)c2)CC1 | -77.6% |

| SMILES | hERG current change (%, negative = inhibition) at 10uM |
| --- | --- |
| CN(CC(=O)NC(=O)NCc1ccccc1)Cc1ccc(Cl)cc1 | -22.6% |
| Cc1nc(N2CCCCC2)sc1C(=O)c1ccc(Cl)c([N+](=O)[O-])c1 | 7.93% |
| O=C(CCSc1ccccc1)NNC(=O)c1ccccc1F | 18.5% |
| COc1ccc(S(=O)(=O)N2CCCC2)cc1NC(=O)c1ccccc1F | 25.9% |
| Cn1c(CO)cnc1SCc1c(Cl)cccc1Cl | 3.01% |
| CSC[C@@H]1NC(=S)N(c2ccc(C)cc2)C1=O | 15.6% |
| Cc1noc(C)c1C(=O)N(C)CC(=O)Nc1ccc(F)c(F)c1F | -4.15% |
| NS(=O)(=O)c1cccc(NC(=O)COC(=O)/C=C/c2ccco2)c1 | -0.65% |
| CCCS(=O)(=O)N1CCCC(C(=O)NCC2CCCO2)C1 (stereo not shown) | 11.1% |
| CCOc1ccccc1N1CCN(C(=O)NCc2ccc(F)cc2)CC1 | -9.29% |
| COC(=O)CCC(=O)OC1(C)C(=O)C2=CN(C3CCCC3)C(c3ccc(OC)cc3)=CC2=C(Br)C1=O (stereo not shown) | -52.6% |
| CC(Sc1ccccc1)C(=O)NN=C1CCN(C)CC1 (stereo not shown) | 20.7% |
| Cc1ccc(C(=O)COC(=O)CNC(=O)c2ccco2)cc1 | 1.12% |
| O=C(N=Nc1c(O)n(Cc2ccccc2)c2ccccc12)c1ccncc1 | -31.5% |
| O=C(c1ccc(S(=O)(=O)N2CCCC2)cc1)N1CCCCC1 | -9.7% |
| Cc1c(C(=O)Nc2ccc(-c3nnc4n3CCCCC4)cc2)oc2c1ccc1ccccc12 | -13.8% |
| C=CCn1c([O-])c(C(C)=O)c(=O)[nH]c1=O.C[NH+](C)C | 6.41% |
| CSCc1cc(N(C)C)nc(SCc2ccc(Cl)cc2Cl)n1 | 12.9% |
| N=c1oc2cc(O)ccc2cc1C(=O)Nc1nc2ccccc2s1 | 11.4% |
| CN1CC(=O)Nc2ccc(Br)cc2C1=O | 19.9% |
| CCOC(=O)C(C)Sc1nnc(-c2c[nH]c3ccccc23)n1C (stereo not shown) | 6.23% |
| CC(=O)Nc1ccc(S(=O)(=O)N(C)CC(=O)OCC(=O)c2cc(C)n(-c3ccc4c(c3)OCO4)c2C)cc1 | 11.8% |
| NC(=O)C1CCN(C(=S)c2ccc(-c3ccc(Br)cc3)o2)CC1 | 23.3% |

| SMILES | hERG current change (%, negative = inhibition) at 10uM |
| --- | --- |
| COc1ccc(OCCC(=O)Nc2ccccc2)cc1 | -6.83% |
| N#Cc1cc2c(nc1SCC(=O)Nc1sc3c(c1C#N)CCC3)CCCC2 | 4.92% |
| CC1CN(c2snnc2C=C2C(=O)OC(C)(C)OC2=O)CC(C)O1 (stereo not shown) | 33.8% |
| Cc1cccc(NC(=O)Cn2c(=O)oc3ccccc32)n1 | 9.29% |
| COc1ccc(Cc2nnc(SCC(=O)NCC3CCCO3)o2)cc1 (stereo not shown) | 25.9% |
| COc1c(Cl)cc(Cl)cc1CNCCNCC(C)O.Cl (stereo not shown) | -6.46% |
| CCOC(=O)c1cccc(NC(=S)NCc2ccc(C)cc2)c1 | 0.823% |
| COc1cc2c(c(OC)c1OC)-c1c(cc3c(c1O)OCO3)C[C@@H](C)[C@@H](C)C2 | 0.26% |
| O=C(c1ccc2c(c1)OCO2)N1CCN(c2ccccc2)CC1 | -10.9% |
| COc1ccc(-n2c(C)cc(C(=O)CN3CCCCC3)c2C)cc1 | 1.6% |
| O=C(/C=C/c1cccc(Br)c1)c1ccc2c(c1)OCO2 | 6% |
| CN(C)CCN(C(=O)/C=C/c1cccs1)c1nc2c(F)cc(F)cc2s1.Cl | -47.8% |
| CCC(C)(C)n1nnnc1C(c1cccnc1)N1CCCC(C)C1 (stereo not shown) | 3.14% |
| N#C/C(=C\c1ccc(Cl)cc1)c1nc(-c2ccco2)cs1 | 17.6% |
| COc1ccc2cc(Br)ccc2c1CC(=O)NC(C)C | 15.8% |
| COc1ccc(CCN(Cc2nc3ccccc3c(=O)[nH]2)C(=O)c2ccco2)cc1OC | 13.2% |
| CC(C)c1ccc(S(=O)(=O)Nc2ccc(N3CCOCC3)cc2)cc1 | -0.0665% |
| O=C(CSc1ccc(-c2ccccn2)nn1)Nc1cccc(F)c1 | -26.8% |
| Cn1ccnc1SCC(=O)Nc1cccc(O)c1 | 4.2% |
| CC(C)CC1(C)NC(=O)N(CC(=O)N2C(C)CCCC2C)C1=O (stereo not shown) | 5.81% |
| NC(=O)COc1ccc(NS(=O)(=O)Cc2ccccc2)cc1 | 19.3% |
| O=C1N[C@@H](Cc2cn(S(=O)(=O)c3c(F)c(F)c(F)c(F)c3F)c3ccccc23)C(=O)N[C@H]1Cc1ccccc1 | 4.18% |

From paper PMC4336329 (PLoS ONE, 2015)
